From ChEMBL document CHEMBL1201862, “PubChem BioAssay data set” (2004) come the findings set out here.

Structures are written as SMILES.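 Test compounds were applied to cells in 96-well plates for 48 hours at 5 doses. GI50: concentration for 50% inhibition of growth.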 The source made the active and inactive calls. Cut-off read from the data, not from the text of the source: active = GI50 up to about 1.1 µM and inactive = higher.

In this experiment the test system is NCI-H322M. Kind of experiment: growth of human tumour cells (NCI), 48 h.
On to `c1ccc2cc(-c3cc(-c4cc(-c5ccc6ccccc6c5)on4)no3)ccc2c1`, for which the GI50 is inactive: > 100 µM.
Take `CCSc1nc(=S)n(-c2ccccc2)c(C)c1C(C)=O`: the GI50 is inactive: > 100 µM.
For `COc1cc2c(c(OC)c1OC)-c1c(cc3c(c1OC)OCO3)CC(C)C(C)(O)C2OC(=O)c1ccccc1` (centres undefined) the value was inactive: 99.5 µM.
Turning to `CC1(C)Cc2ccccc2C(C)(Cl)C(=O)N1` (centres undefined), the GI50 is inactive: > 10 µM.
For `CC1=C(C(N)=O)C(c2ccncc2)C(C#N)C(=O)N1` (centres undefined) the value was inactive: > 100 µM; for `Cc1nc2c(o1)C(=O)c1ccccc1/C2=N\c1ccccc1`, inactive: 15.9 µM.
The same measure for `O=C(/C=C/c1ccc2c(c1)OCO2)c1ccc(O)cc1`: inactive: 16.5 µM; for `CCOC(=O)C(=O)Nc1c(C(C)C)cccc1C(C)C`: inactive: > 100 µM; for `CC(C)(C)OC(=O)N1CC(CCl)c2ccc(O)cc21` (centres undefined): inactive: 2.36 µM.
`C#CC(O)/C=C/CCCCCCC#CC/C=C\CC#CCCCCCCCCC(O)C#C` (centres undefined): the GI50 was inactive: 14.5 µM.
`CCOC(=O)C1=C(O)C(=O)c2cc(OC)ccc2C1=O`: the GI50 is inactive: 41.1 µM.
For `COc1c2cc(C(C)(C)C)cc1CSCc1cc(C(C)(C)C)cc(c1OC)CCCCC2` the value was inactive: > 50 µM; for `Cn1c(=O)c2nc3sc4ccccc4c(=N)n3c2n(C)c1=O`, inactive: > 100 µM.
For `Nc1ccc2ccc(N3CCNCC3)nc2n1` the value was inactive: 28.4 µM; for `CC(=O)Nc1n[n+]([O-])c2cc(C)ccc2[n+]1[O-]`, inactive: 11 µM.
For `COC(=O)N/N=C(\C)C(CN1CCOCC1)C(c1ccccc1)c1cc2ccccc2oc1=O` (centres undefined), the GI50 is inactive: > 100 µM.
The same measure for `O=C1CCCCC1C1(O)C(=O)Nc2cc(F)ccc21` (centres undefined): inactive: > 100 µM.
The same measure for `CC(C)[Si](Oc1ccc(CC2N(C(=O)c3ccc([N+](=O)[O-])cc3)C(CCc3ccccc3)CC2(C)C=O)cc1)(C(C)C)C(C)C` (centres undefined): inactive: > 100 µM; for `O=C(/C=C/c1cccs1)c1cccc(C(=O)/C=C/c2cccs2)n1`: inactive: > 100 µM.
The same measure for `NC1=NN(c2ccccc2)C(=O)C1C(=O)CCC(=O)Nc1cccc(Cl)c1` (centres undefined): inactive: > 100 µM; for `COc1cc(C(=O)OC2CC(C)=CC[C@@]3(C)CC[C@](O)(C(C)C)C23)ccc1O` (some centres undefined): inactive: 15.3 µM; for `CCCCCCOc1ccc(C(=O)NO)cc1`: inactive: 16 µM.
For the molecule `c1ccc2c(c1)cc(C1NCCc3nc[nH]c31)c1ccccc12` (centres undefined), the GI50 was inactive: 61.1 µM.
For `CCOC(=O)N1CCN(Cc2cc(=O)n3ccc(C)cc3n2)CC1` the value was inactive: > 100 µM.
For the molecule `CCOC(=O)c1nc2cc(F)c(F)cc2nc1NCc1cc(OC)c(OC)c(OC)c1`, the GI50 was inactive: > 100 µM.
The same measure for `CC1(C)O[C@@H](CCl)C[C@H](C#N)O1`: inactive: > 100 µM; for `O=C1CSC2(CC(/C=C/C=C/c3ccccc3)=NN2c2cccc(S(=O)(=O)O)c2)N1c1nc2ccccc2s1` (centres undefined): inactive: 83 µM; for `CCCCn1c(C)c2c(c1C)C(=O)N(CCN1CCN(c3ccccc3Cl)CC1)C2=O`: inactive: 41.5 µM.
For `CCOc1ccc(NCC2CC/C(=C\C=C\c3ccccc3)C2=O)cc1` (centres undefined) the value was inactive: 57.1 µM; for `C=CCN(N=O)C(=O)NCCCC(NC(C)=O)C(=O)NCc1ccccc1` (centres undefined), inactive: > 100 µM; for `CCOC(=O)Nc1cc2nnc(-c3ccccc3)nc2c(N)n1`, inactive: 20.4 µM.
The same measure for `Clc1nc2n(c1/C=C/c1cccs1)CCS2`: inactive: 45.8 µM; for `CCOC(=O)C(=O)C(CCC(=O)c1ccc2ccccc2c1O)C(=O)OCC` (centres undefined): inactive: > 100 µM; for `Cc1cc2c(c(C(N)=O)c1C)-c1cccc(F)c1C2=O`: inactive: > 100 µM.
In the case of `COC(c1ccc(C(C)(C)C)cc1)(c1ccc(C(C)(C)C)cc1)c1ccc(C(C)(C)C)cc1`, the GI50 was inactive: > 100 µM.
The same measure for `CS(=O)(=O)OCCCNCCCOS(C)(=O)=O`: inactive: 2120 µM.
For `CCOC(=O)/C=C(\C)c1ccc(Cl)cc1` the value was inactive: > 100 µM.
For `O=C(c1ccco1)N(Cc1cccnc1)C(=S)N(Cc1cccnc1)C(=O)c1ccco1` the value was inactive: 18.6 µM; for `COc1cc(C(=O)Oc2ccc3c(c2)OCO3)cc(OC)c1OC`, inactive: > 100 µM.
Take `COc1ccc2oc(C(=O)O)c3c2c1CCC3`: the GI50 is inactive: > 100 µM.
As to `COc1ccc(N2C(=O)[C@@H]3[C@@H]4CC(C)CC[C@@H]4c4c([nH]c5ccccc45)[C@@H]3C2=O)cc1` (some centres undefined), the GI50 was inactive: 16.9 µM.
The same measure for `N=c1oc2ccc([N+](=O)[O-])cc2cc1C(=O)Nc1ccccn1`: inactive: 85.9 µM; for `CC(=O)NC1(C)C(C)C2CC1C(C)C2(C)C` (centres undefined): inactive: > 100 µM.
The same measure for `Cc1cc(-c2ccccc2)nc(Nc2nc3ccccc3o2)n1`: inactive: > 100 µM.
On to `CCC1C(C#N)=C(O)NC(O)=C1C#N`, for which the GI50 was inactive: > 100 µM.
In the case of `COc1ccc(C2SC(=N)Nc3c2c(C)nn3C(=O)c2ccccc2O)cc1OC` (centres undefined), the GI50 is inactive: > 10 µM.
For `C=C(CC[C@@H](C)[C@H]1CC[C@H]2[C@@H]3C[C@@H](O)[C@H]4C[C@@H](O)CC[C@]4(CO)[C@H]3CC[C@]12C)C(C)C` the value was inactive: 5.89 µM; for `O=C1C=C(NCCOCCO)C(=O)c2c(O)ccc(O)c21`, inactive: 26.3 µM.
The same measure for `N#CC1(CCCCl)CCCCC1`: inactive: > 100 µM.
For `CC(C)OP(=O)(OC(C)C)c1nn(-c2ccc([N+](=O)[O-])cc2)c(=N)s1` the value was inactive: > 100 µM.
In the case of `CCCCCc1c(Cl)nc(Cl)nc1Cl`, the GI50 was inactive: 16.1 µM.
For the molecule `CC/N=C(/C#N)NCC`, the GI50 is inactive: > 100 µM.
For `CC(=O)C1=C(C)N(c2ccccc2)C2(O)C3=C(C(=O)c4ccccc4C3=O)C(O)=CC12Cl` (centres undefined) the value was inactive: 7.38 µM.
For `CC(=O)O[C@H]1CC[C@@]2(C)C(=CC[C@H]3[C@@H]4C/C(=C\c5ccc(N(C)C)cc5)[C@H](OC(C)=O)[C@@]4(C)CC[C@@H]32)C1` the value was inactive: 18.7 µM.
`O=C(N/C(=C\c1ccc([N+](=O)[O-])cc1)c1nc2c(O)nc(S)nc2[nH]1)c1ccccc1`: the GI50 was inactive: > 100 µM.
For `COc1c(-c2ccc(F)cc2)oc2cc(O)cc(O)c2c1=O` the value was inactive: 28.4 µM; for `O=c1c2ccc(Br)cc2nc(-c2ccccc2)n1NC1OC(CO)C(O)C(O)C1O` (centres undefined), inactive: > 100 µM.
For `COCN1C(=O)[C@@H]2CCCN2C(=O)c2cc([N+](=O)[O-])ccc21` the value was inactive: > 100 µM; for `Cc1c2ccccc2c(/C=N/NC(=O)CSCC(=O)N/N=C/c2c3ccccc3c(C)c3ccccc23)c2ccccc12`, inactive: 38.5 µM.
For `O=C1/C(=C/c2ccc(Cl)cc2)N=C(c2ccccc2)N1C1Nc2cc3c(cc2S1)NC(N1C(=O)/C(=C/c2ccc(Cl)cc2)N=C1c1ccccc1)S3` (centres undefined) the value was inactive: > 100 µM.
For the molecule `COc1ccc(CCNC(=O)Cc2ccccc2CO)cc1OC`, the GI50 was inactive: > 100 µM.
The same measure for `O=C1C2=Nc3ccccc3C(O)N2c2ccccc21` (centres undefined): inactive: 21 µM.
The same measure for `O=C(Nc1c(Cl)cc([N+](=O)[O-])cc1Cl)C(=O)C(C(=O)c1ccncc1)C1OC(=O)c2ccccc21` (centres undefined): inactive: > 100 µM; for `CN1c2ccccc2S(=O)(=O)n2c(COc3ccccc3)nnc21`: inactive: > 100 µM.
The same measure for `CC(C)(C)OC(=O)c1ccc(NCC2=C(Br)C(=O)C=CC2=O)cc1`: inactive: > 100 µM; for `Cc1ccc(SCC(=O)C2=C(O)CCCC2=O)cc1`: inactive: > 100 µM.
As for `Cn1nc2ccc3nccc(N(CCO)CCO)c3c2n1`, the GI50 was inactive: > 100 µM.
The same measure for `O=S1(=O)OCc2ccccc21`: inactive: > 100 µM.
The same measure for `CC(=O)OC(C)(C)C[N+](=O)[O-]`: inactive: > 100 µM.
For `CC1(C)COC(c2cccnc2/C=N/O)=N1` the value was inactive: > 100 µM.
With `C#CCC[C@@H]1O[C@@]1(C)CC/C=C(\C)CC/C=C/C=O`, the GI50 was inactive: > 100 µM.
For `CN(CCCN=C=S)CCCN1c2ccccc2CCc2ccccc21` the value was inactive: 1.71 µM; for `CC1(C)C(=S)C(C)(C)C1=S`, inactive: > 100 µM; for `Cc1ccc(N/C(=C(/C(Cl)=C(Cl)Cl)[N+](=O)[O-])n2nnc3ccccc32)cc1`, inactive: 19.5 µM.
For `c1ccc(C2N=C(c3ccccn3)C(c3ccccn3)=NC2c2ccccc2)cc1` (centres undefined) the value was inactive: > 100 µM; for `CCOC1CC(C)N(C(=O)c2ccccc2)O1` (centres undefined), inactive: > 100 µM; for `Cc1ccc(C2=C(c3ccccc3)C(Br)(c3ccc(C)cc3)C(c3ccccc3)=C2c2ccc(C)cc2)cc1`, inactive: > 100 µM.
The same measure for `O=C(CCn1[nH]c(=O)c(Cl)c(Cl)c1=O)NNC(=O)C[n+]1ccccc1`: inactive: > 100 µM; for `N#C[BH2-][n+]1ccc(C(=O)NNCc2ccccc2)cc1`: inactive: 48.6 µM; for `CC(=O)Nc1ccc(-c2nc3cc(Cl)ccc3o2)cc1`: inactive: > 50 µM.
Regarding `C=C(C(=O)O[C@H]1C/C(C)=C/CC/C(CO)=C/[C@H]2C(=O)OC(=C)[C@H]12)C(O)CO` (some centres undefined), the GI50 is inactive: 18.4 µM.
On to `CCC(=O)O[C@@H]1C2C(OC(C)=O)C34COC(C)([C@@H]3C3C(C[C@]3(C)OC(C)=O)[C@@H](OC(=O)c3ccccc3)C4=O)[C@H](OC(C)=O)[C@@]2(OC(C)=O)C[C@@H]1C` (some centres undefined), for which the GI50 was inactive: > 100 µM.
For `CC(C)C(C/C=C1\CC(CO)(COC(=O)C2CCCCC2)OC1=O)C(C)C` (centres undefined) the value was inactive: 15.7 µM.
The same measure for `COc1ccc(/C=C/c2cc(O)cc(OC)c2)cc1`: inactive: 99.5 µM.
